Measured values: the antibiotic and cytotoxicity screens of Wong et al. (2023)
Some of the results follow.

Key:
[1] = test system: HSkMC (human skeletal muscle cells); experiment: cytotoxicity call (relative viability < 0.9); settings: 10 µM
[2] = test system: HepG2; experiment: cytotoxicity call (relative viability < 0.9); settings: 10 µM
[3] = test system: S. aureus RN4220; experiment: growth inhibition call (relative growth <= 0.2); settings: 50 µM

C[C@@H]1CCCCO[C@@H](CN(C)C(=O)Nc2ccc(C(F)(F)F)cc2)[C@H](C)CN([C@@H](C)CO)C(=O)c2cc(NC(=O)c3ccncc3)ccc2O1
inactive: cytotoxicity call [1] | cytotoxicity call [2] | growth inhibition call [3]

C[C@H]1CN([C@@H](C)CO)C(=O)c2cc(C#CC(C)(C)O)cnc2O[C@@H]1CN(C)C(=O)CN(C)C
inactive: cytotoxicity call [1] | cytotoxicity call [2] | growth inhibition call [3]

Cc1noc(C)c1S(=O)(=O)Nc1cccc2c1O[C@H](CN(C)S(=O)(=O)c1ccc(Cl)cc1)[C@H](C)CN([C@@H](C)CO)C2=O
inactive: cytotoxicity call [1] | cytotoxicity call [2] | growth inhibition call [3]

COc1nc(N2CCOCC2)nc(N)c1[N+](=O)[O-]
inactive: cytotoxicity call [1] | cytotoxicity call [2] | growth inhibition call [3]

O=C(O)c1cc(=O)c2ccccc2o1
inactive: cytotoxicity call [1] | cytotoxicity call [2] | growth inhibition call [3]

CC(C)NC(=O)N(C)C[C@H]1Oc2c(NS(=O)(=O)c3ccc(Cl)cc3)cccc2C(=O)N([C@H](C)CO)C[C@H]1C
inactive: cytotoxicity call [1] | cytotoxicity call [2] | growth inhibition call [3]

C[C@H](CO)N1C[C@H](C)[C@@H](CN(C)C(=O)Nc2ccc(C(F)(F)F)cc2)Oc2ccc(NC(=O)Cn3cnnn3)cc2CC1=O
inactive: cytotoxicity call [1] | cytotoxicity call [2] | growth inhibition call [3]

O=C(C[C@H]1C=C[C@@H](NS(=O)(=O)c2ccccc2F)[C@@H](CO)O1)NCCCN1CCOCC1
inactive: cytotoxicity call [1] | cytotoxicity call [2] | growth inhibition call [3]

C[C@@H]1CN([C@@H](C)CO)S(=O)(=O)c2ccc(C#CC3CC3)cc2O[C@H]1CN(C)Cc1cccc(F)c1
inactive: cytotoxicity call [1] | cytotoxicity call [2] | growth inhibition call [3]

C[C@@H]1CN([C@H](C)CO)C(=O)Cc2cc(NC(=O)CCC(F)(F)F)ccc2O[C@H]1CN(C)S(=O)(=O)c1ccccc1
inactive: cytotoxicity call [1] | cytotoxicity call [2] | growth inhibition call [3]
